Results as given in PubChem BioAssay AID463173 (ICCB-Longwood Screening Facility, Harvard Medical School, 2010).
In all, about 52,000 compounds went through this assay and about 4,300 (8.3%) were called active. Rule as the data show it: active = survival mostly below about 52% (no sharp cut-off); inactive = mostly above about 56%. The list shows a part of the results.

Each compound was assayed on DeltatarO mutant (assay: growth inhibition of S. aureus wild type versus tarO mutant, primary screen, teichoic acid synthesis inhibitors, RN4220, OD600 (AID 463173)). Conditions: OD600, 18 h, stronger effect = lower value, screened at 18.75 µg/mL (by protocol).

SMILES | survival
COc1cccc(NC(=O)N(Cc2cc3ccc(C)cc3n3nnnc23)CC2CCCO2)c1 (stereo not drawn) | inactive: 103%
CCCc1nc(=S)c2ccccc2[nH]1 | inactive: 61%
Cc1ccccc1OCCSc1nnc(-c2cccs2)o1 | inactive: 106%
CCC(C(=O)NCCC(C)C)N(C(=O)Cn1nnc(-c2ccc(C)cc2)n1)c1cccc(O)c1 (stereo not drawn) | active: 37%
Cc1ccc(NC(=O)Cn2c(=O)n(CCC(C)C)c(=O)c3cccnc32)cc1C | inactive: 70%
COC(=O)C1(CO)NC(c2ccccc2F)C2C(=O)N(c3ccccc3)C(=O)C21 (stereo not drawn) | inactive: 86%
O=C(Cn1nnc(-c2cccnc2)n1)NCC1CCCO1 (stereo not drawn) | inactive: 82%
COc1ccc(Cl)cc1NC(=O)Cn1c(=O)n(Cc2ccc(F)cc2)c(=O)c2cccnc21 | inactive: 64%
CC(=O)N1CCN(CC(O)COc2ccc(Br)cc2)CC1 (stereo not drawn) | inactive: 89%
O=C(N/N=C1/CSC(=O)N1Cc1cccs1)c1cccs1 | inactive: 75%
CCN(CC)CCNC(=O)c1cc2c(-c3cccc(OC)c3)nn(C)c2s1 | inactive: 147%
Cc1ccc(C(=O)N2CCN(CCc3ccncc3)CC2)cc1 | inactive: 81%
CCOc1ccccc1NC(=O)Cn1c(=O)n(CCCC(=O)NCc2ccc(C)cc2)c(=O)c2ccccc21 | inactive: 78%
CCOC(=O)C1=C(SCC)c2cc3c(n2C1=O)CCCC3 | inactive: 83%
Cc1cccc2sc(N(Cc3cccnc3)C(=O)c3ccco3)nc12 | inactive: 83%
COc1ccccc1OCC(=O)NCCS(=O)(=O)N1CCN(c2ccccc2OC)CC1 | inactive: 96%
Cc1ccc2[nH]cc(C(c3ccccc3)c3ccc(Cl)s3)c2c1 (stereo not drawn) | active: 10%
Cc1nn(C(C)C(=O)NCc2ccco2)c(=O)c2nn(-c3ccccc3)c(C)c12 (stereo not drawn) | active: 37%
COc1ccccc1C(=O)Nc1ccc(-c2cc(C(F)(F)F)nn2-c2ccccc2)cc1 | inactive: 45%
CCOC(=O)c1c(C)[nH]c(C)c1S(=O)(=O)N1CCCC(C(=O)N2CCN(c3cccc(Cl)c3)CC2)C1 (stereo not drawn) | inactive: 83%

SMILES | survival
O=C(CN(c1ccc2c(c1)OCCO2)S(=O)(=O)c1ccccc1)NCc1ccco1 | inactive: 85%
Cc1ccc2nc(-c3ccc(C)s3)c(Nc3ccc4c(c3)OCCO4)n2c1 | inactive: 108%
COc1ccc(CCNC(=O)CN(c2ccccc2)S(=O)(=O)N(C)C)cc1 | inactive: 79%
COc1ccccc1-c1nn(CCC(=O)Nc2ccccc2)c2nc(C)cc(C)c12 | inactive: 62%
O=C(NCc1ccccc1Cl)c1ccc2c(c1)NC(=O)C(CS(=O)(=O)Cc1ccc(Cl)cc1)N2 (stereo not drawn) | inactive: 82%
O=C(Nc1ccc(F)c(F)c1)C(c1ccccc1)N1Cc2ccccc2C1=O (stereo not drawn) | inactive: 102%
CCOc1ccc(CNC(=O)c2cc3cc(S(=O)(=O)N4CCCCC4)ccc3n2C)cc1 | inactive: 89%
Oc1ccc(NCc2ccccc2OCc2ccccc2)cc1 | inactive: 61%
COc1ccc(C(=O)NCCc2csc(-c3ccc(Cl)cc3)n2)c(OC)c1 | inactive: 94%
CC(C)N(C(=O)Cn1c(-c2cccnc2)ccc(C#N)c1=O)C(C)C | inactive: 84%
COC(=O)C1=CN(CCCN2CCCC2=O)C=C(C(=O)OC)C1c1cccs1 | inactive: 77%
O=C1CCCc2oc3c(c21)CCCC3 | inactive: 80%
CSc1ccc(CCNC(=O)CN2C(=O)COc3ccc(S(=O)(=O)N4CCCCCC4)cc32)cc1 | inactive: 50%
COc1ccc(S(=O)(=O)Nc2cccc(-c3ccc(N4CCCCC4)nn3)c2)cc1F | inactive: 82%
CN1C(=O)c2ccccc2Sc2ccc(NC(=O)N3CCN(c4ccc(F)cc4)CC3)cc21 | inactive: 73%
COc1ccc(-c2nc(S(=O)(=O)c3ccccc3)c(N3CCC(C)CC3)o2)cc1 | inactive: 74%
COc1ccc(NC(=O)C(NS(=O)(=O)c2cccc3nsnc23)C(C)C)cc1OC (stereo not drawn) | inactive: 80%
COc1ccc(Br)cc1CNC(=O)CCSCc1ccc(Cl)cc1 | inactive: 73%
CCC(=O)N1CCc2cc(CNS(=O)(=O)c3cc(Cl)ccc3OC)ccc21 | inactive: 87%
O=c1cc(O)c2c(=O)n3c4c(cccc4c2o1)CCC3 | inactive: 94%

SMILES | survival
Cc1nn(CC(=O)N2CCN(c3ccccc3)CC2)c(=O)c2cc3sccc3n12 | inactive: 88%
Cc1ccc(OCCn2c(COc3ccc(Cl)cc3)nc3ccccc32)cc1 | inactive: 65%
CCN1CCN(c2cc(C)c3cc(NC(=O)c4cc(OC)cc(OC)c4)ccc3n2)CC1 | active: 47%
O=C(CC1N=C2c3ccccc3N=C(SCc3ccccc3Cl)N2C1=O)NC1CCCCC1 (stereo not drawn) | inactive: 87%
COc1ccc(Cl)cc1-n1c(CCC(=O)O)ccc1-c1ccc(C)cc1 | inactive: 73%
CC1CCCN(c2nc3nonc3nc2Nc2cccc(Cl)c2)C1 (stereo not drawn) | active: 0%
COc1ccc(-c2nc3ccc(C(=O)NCc4ccc(C)cc4)cc3nc2-c2ccc(OC)cc2)cc1 | inactive: 86%
CC1CCN(S(=O)(=O)c2ccc3c(c2)N(CC(=O)Nc2ccc(F)c(Cl)c2)C(=O)CO3)CC1 | inactive: 90%
COc1ccc(NC(=O)c2oc3ccccc3c2NC(=O)Cc2ccc(F)cc2)c(OC)c1 | inactive: 85%
Cc1cccc(NC(=O)CN(c2cccc(C(F)(F)F)c2)S(C)(=O)=O)c1 | inactive: 86%
CCOc1cccc(C2c3c(oc4cc(C)c(C)cc4c3=O)C(=O)N2c2nc(C)c(C)s2)c1 (stereo not drawn) | active: 74%
COc1cccc(-c2cc(C(=O)Nc3cccnc3Cl)no2)c1 | inactive: 61%
Cc1ccc(NC(=O)CN2C(=O)C(C)(C)c3cc(S(=O)(=O)N4CCCCC4)ccc32)c(Br)c1 | inactive: 67%
Cn1nc(C(=O)Nc2ccccc2C#N)c2c1-c1ccccc1SC2 | inactive: 89%
CC(C)NC(=O)c1ccc2c(c1)nnn2C | inactive: 78%
Cc1c(C(=O)Nc2cccc(Cl)c2)oc2ccc(S(=O)(=O)N3CCOCC3)cc12 | inactive: 72%
CCC(C)NC(=O)Cn1cnc2sc(C)c(S(=O)(=O)N3CCN(c4ccccc4OC)CC3)c2c1=O (stereo not drawn) | inactive: 65%
COc1cccc(NC(=O)N2CCC(CN3CCOCC3)CC2)c1 | inactive: 94%
